Experimental data published in patent US20140113348A1 (CITY OF HOPE, published 2014).

Tests used:
[1] = molecular target: T1, wild-type trastuzumab; test: FACS, Alexa 488 labeled meditope-Fc on SKBR3 cells pre-incubated with wild-type trastuzumab [lower panel]
T1 construct: also called WT T

[2] = molecular target: T2, HER2 on SKBR3 cells (UniProt P04626); test: FACS, SKBR3 cells without antibody
T2 construct: whole, on cells; also called HER2-expressing cells (SKBR3)

T1 sequence (heavy, as listed by the source limits assumed, chain 1 of 2, other chains not shown): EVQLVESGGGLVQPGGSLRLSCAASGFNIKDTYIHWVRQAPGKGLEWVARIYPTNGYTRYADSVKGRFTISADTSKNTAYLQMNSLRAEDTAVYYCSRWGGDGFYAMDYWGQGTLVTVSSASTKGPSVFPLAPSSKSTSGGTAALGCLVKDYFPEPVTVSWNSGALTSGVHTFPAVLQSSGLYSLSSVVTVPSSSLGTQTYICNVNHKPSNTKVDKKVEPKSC

Binder: CQFDLSTRRLKCGGGSGSGSGGSSGGGGG[… human IgG1 Fc …] (Fc fusion, also called bivalent meditope-Fc)
- binding result [1]: no binding
- binding result [2]: no binding
